The other results are listed elsewhere or left out.
system: PfAP2-HC AP2 domain (GST-tagged); assay: gcPBM binding intensity (ln(normalized median fluorescence intensity)); higher = stronger DNA binding
In short: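 Binding intensity is the highest Masliner-normalised natural-log median intensity over replicate spots in either probe orientation. To obtain it, GST-tagged P. falciparum DNA-binding domains made in E. coli were incubated for 1 h on an Agilent 4 × 180k array of primer-extended double-stranded 36-bp intergenic genomic probes plus negative controls. Detection used Alexa488 anti-GST antibody with scanning at 488 nm.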

| Sequence | gcPBM binding intensity (ln) |
| --- | --- |
| TTTTTTTTTGAAAAAAGTACTTAATTTTTAAGAAGA [XGTACX_site3591] | 8.94 |
| AAGGAATGCATATAGGTGCTACACATAAAAATAAAA | 9.85 |
| TTAAGTAGTACATACACACACATATACAAAAAGAAA [CACACA_site3972] | 10.7 |
| TACTTTTTTCCTATTATGTTTCTTATTTTTATAAAT [XGTACX_negctrl_site561] | 9.78 |
| GTCAACAAGAATTAAGTGCATAATTTTTTATTAAAT [GTGCAC_site9492] | 9.45 |
| ATGTCAAGAACTGAACGTACAAACTTTGTAATATTG [XGTACX_site8754] | 9.73 |
| AGTAATAATCGGCATGCATGTCAGTGGTAGTATATA [TGCATGCA_site312] | 9.94 |
| ATATAATAATAATATTGTACAATAAAAAATATATAT [XGTACX_site7350] | 9.96 |
| ATACAGATAGGATGCACACATAATTCAAATACAATA [CACACA_site4531] | 9.9 |
| AAATTTTATGTATAATGTACACATAAATTTTTCTTT [XGTACX_site7266] | 9.58 |
| GGAATATTAAAAAAATGTACAAAAAATAATATCCAT [XGTACX_site2596] | 9.74 |
| TATTAATATTTTTGTTGTACTTAAAAATGATGGTAG [XGTACX_site3501] | 9.42 |
| AGTAAAAAAAAAAAAAAAAAAAAAAAAAAAAAAAAA [GTGCAC_negctrl_site147] | 9.06 |
| TATTATTTTAATTATTCACACATTATTATAAAAATT [CACACA_site5538] | 9.52 |
| CATATACACGAACACACACACATATAAATAAATATA [CACACA_site6379] | 10.6 |
| ATATATACGTATGAATGTATATTTGTTTGAATTTTT [CACACA_negctrl_site524] | 9.61 |
| AATAATAACATACAGACACACACGTAAAAGCACGTG [CACACA_site253] | 10.5 |
| TTTATATATTAATATGCACACACAAGAAGTAATTAT [CACACA_site9045] | 9.98 |
| AATGGGTAAACATACACACACACATATATATATATA [CACACA_site1991] | 10.5 |
| TATAATGTTAAATAATGTACATATATTTTTTTTTTT [XGTACX_site4722] | 9.54 |
| TATATATATTAAAAAGTGCATTATTCATATTATATA [GTGCAC_site9400] | 9.54 |
| TTACAATTTAATATATGTACATATTTGTGATTTATC [XGTACX_site2911] | 9.69 |

| Sequence | gcPBM binding intensity (ln) |
| --- | --- |
| TTTATTAATAATTATACACACATATAAAATGAATAA [CACACA_site1359] | 9.59 |
| AAAATATCTTGTTACTGTACAAATATAAATAAATAC [XGTACX_site3684] | 9.64 |
| ATTTGGCATAGACACACACACACACGCACGCACATA [CACACA_site6424] | 11.1 |
| TATGTTCATCATAGCACACATATATAAATTACAACA [CACACA_site3533] | 9.63 |
| CAAAAATAAACTATAGTACACACTTATTATTATGAA [CACACA_site2702] | 9.73 |
| TTTTTATGTAGAATTTTTTTATTTTTTCAAAATGGA [CACACA_negctrl_site166] | 8.97 |
| ATTGTAATCATATGAAGTACTAATATATATTTTAAT [XGTACX_site8350] | 9.61 |
| ATTTATAAAATTAATAGTACATATATTTATATATAT [XGTACX_site4173] | 9.62 |
| TATTGCACAAAATAATTTTATTATACTTTATGTTAG [TGCATGCA_negctrl_site574] | 9.55 |
| TTTTAAATAAAATATTGTACATTAAAATTGTAATAT [XGTACX_site2128] | 9.39 |
| AAGCAAACATATTAATGTACACACACCCACACACAA [XGTACX_site5806] | 11.1 |
| TAAGATAAATGATAAAGTACTTTTTTTTTTTAAATA [XGTACX_site2326] | 9.28 |
| ATTATAAATATGTATATACACACTTTTAATATTCAT [CACACA_site9367] | 9.83 |
| AATTTTAAAAATATAACACACATATATAAAATATAT [CACACA_site3610] | 9.68 |
| AATGAAGAAAAAAAAAGTACATTATTTTTAAAACTT [XGTACX_site563] | 9.66 |
| AATTGTCAGAGAATATGTACTTAAGTATTTATTGTT [XGTACX_site1947] | 9.62 |
| ATAAAAAAATAAAACACACACATATATATTATATAT [CACACA_site2810] | 10.6 |
| TAAATAAAAAAACACACACACATATATATATATATA [CACACA_site2269] | 11.4 |
| AATAAGATATCTACAACACACATTTAATTTTTTTTT [CACACA_site1641] | 9.77 |
| AATCATAAAGAACATATAATATATATATATATATAT [CACACA_negctrl_site316] | 9.73 |
| AATGCATTGATTGCATTCAAAAAAAAAAAAAAAAAA [XGTACX_negctrl_site597] | 8.98 |
| AATATATGCTTTCGTTATATTAAATTCAATTTAATG [GTGCAC_negctrl_site76] | 9.5 |

| Sequence | gcPBM binding intensity (ln) |
| --- | --- |
| AACAACTATTAATTTACACACATGTATTTATTTTAC [CACACA_site5683] | 10.1 |
| TCTTATATATTTATTTGTACATATATATATATATAT [XGTACX_site7214] | 9.91 |
| TGTATTACGAAAAAATGTACAGAAAAAGAAACAAAA [XGTACX_site2777] | 9.86 |
| TTTGTCATAAGCAATGCATGTAAGTTTCTGACATTA [TGCATGCA_site1007] | 9.29 |
| TGGGATAGATCATTTACACACACAAAAAAAAAAAAA [CACACA_site2140] | 9.89 |
| ACATATAAAATATTCACACACAAGTTATAGTTCTCG [CACACA_site3626] | 10 |
| AATAAATTATATATCACACATATATATTTATATTTA [CACACA_site5964] | 9.45 |
| AAATTTATAAAGAACACACACATATATATATATATA [CACACA_site48] | 10.7 |
| CAAAACCTAATATGTACACACATATACATCACACTT [CACACA_site7480] | 10 |
| TTTCTTTCGAATGCTTCACACATTACTCTTAAATAG [CACACA_site5265] | 9.62 |
| AAATGTGAACTATAATAATTTCAACGTCTGATATAA [TGCATGCA_negctrl_site440] | 9.61 |
| ATATATATATATATAGTGCACATTTATATAATTATT | 9.84 |
| ATTTTGTTATTATATATATATATATATATATATATA [XGTACX_negctrl_site590] | 9.69 |
| ATTTTAAATTAAATTACACACTACGAATAATATATT [CACACA_site4016] | 9.66 |
| ATATTTCTGTCAAGCACACATAATATTAATATATGT [CACACA_site318] | 9.89 |
| ATTCATATGAAACACACACACACACCCATAAAAAAA [CACACA_site3246] | 10.5 |
| TCTTTTCAATTTTATATGATCTTAATATTTTATGAA [GTGCAC_negctrl_site294] | 9.54 |
| TTTTTTTTTTTTTACACACACAAAATATTATAGGTA [CACACA_site7209] | 9.92 |
| ATTTTTTACATACTCAAATGTTTTAATTTTTTATAT [CACACA_negctrl_site1213] | 9.77 |
| AATATAAGAAAAATAACACACACATAAACATATATA [CACACA_site8899] | 10.4 |
| ACATTAAAAAATTGTTTGCACTATATAAAATATTAA [GTGCAC_site9728] | 9.51 |
| TTTCTTTTCTTCTCTATTTTTTTTTCACGGCATTAT [TGCATGCA_negctrl_site484] | 9.54 |

| Sequence | gcPBM binding intensity (ln) |
| --- | --- |
| TATATATATATATATTGTACTTTATATGTTCTTATA [XGTACX_site7545] | 10 |
| AAATATTACATTTGTTAAATAATATGTTATACATAA [XGTACX_negctrl_site484] | 9.27 |
| TTTTATAAAGGAAAAGCATGCAGACTAAAAGATCAT [TGCATGCA_site150] | 9.65 |
| AAGGGAAAATAATAAAAGAAAAAGAAAAAAAAAAAA [CACACA_negctrl_site1518] | 9.36 |
| TAATGGAGAAAAAAAAAACACACGGTACATTCAAAG [CACACA_site3117] | 9.97 |
| TGTATAAAAATTTATACACACATTTTATATATTTCA [CACACA_site1015] | 9.61 |
| TATTAATTATTATGACATACATATCAGTTATTAAAA [CACACA_negctrl_site600] | 9.35 |
| TAATCCATAAGAAGCACACACATATATATATATTTT [CACACA_site1399] | 9.99 |
| GAGAGGAACATTATATGTACATATTAATTCTAAAAT [XGTACX_site5433] | 9.59 |
| ACAAATAAGTTTTATACACACATATAAGTAAATACA [CACACA_site4157] | 9.98 |
| TATAGTGATATATACACACACTTGTCTTGTAAAAAT [CACACA_site6594] | 9.84 |
| ACAATATTTTTTTATAAACACACATATATATAAATA [CACACA_site9175] | 9.68 |
| ATGAACAAGTGGCACACACACATTATAACTAATTTA [CACACA_site5731] | 10.1 |
| TTTATTTATTACTAAAGTACTAAATCATATTATTAT [XGTACX_site2574] | 9.3 |
| TTCTTTTTTTTTATCACACATATTACAATCTAGTGC [CACACA_site4697] | 9.75 |
| AAAATAATATTTCCTTGTACACATATGTATTTGTTC [XGTACX_site4430] | 9.92 |
| TTTTCATAATATACATGTACATATATAAATTATTAA [XGTACX_site5206] | 9.33 |
| GTATACATGCAAATTTTTATTTACAACCCCAAAAAG [XGTACX_negctrl_site255] | 9.68 |
| TTTTTTTCACAAAATACACACAATATATTTTATATC [CACACA_site1138] | 9.79 |
| TATTATAATATGCCTTGTACATATAACAAATTTATT [XGTACX_site108] | 9.41 |
| ATGTTATAAGATTTATGTACACACATATACACACCT [XGTACX_site1316] | 10.5 |
| GTTTCCTTAATATTCACACACATATATATAATATAT [CACACA_site1856] | 10.2 |

Reference: the supplement of paper PMC11417369
